The labels stand for the following.
T1: RBFOX1 RRM RbFoxmut (Fox-RRM*) (Homo sapiens, UniProt Q9NWB1 109-208, R118D;E147R;N151S;E152T)
T1 sequence: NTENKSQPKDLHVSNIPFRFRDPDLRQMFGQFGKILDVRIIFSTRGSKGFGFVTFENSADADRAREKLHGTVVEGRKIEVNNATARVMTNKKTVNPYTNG

B1: AAGCCCU (DNA:RNA)
RNA: GGGAGACCGGAAUUCAGAUUGUCCAAGCCCUUUAAAUCCCGUCGUAGCCACCA
DNA 1: CAATCTGAATTCCGGTCTCCC
DNA 2: TGGTGGCTACGACGGGATT
B2: GUGAAAU (DNA:RNA)
RNA: B1 RNA with A25G, A26U, C28A, C29A, C30A
DNA 1: CAATCTGAATTCCGGTCTCCC
DNA 2: TGGTGGCTACGACGGGATT
B3: GGUGAUG (DNA:RNA)
RNA: GGGAGACCGGAAUUCAGAUUGUCCGGUGAUGUUAAAUCCCGUCGUAGCCACCA
DNA 1: CAATCTGAATTCCGGTCTCCC
DNA 2: TGGTGGCTACGACGGGATT
B4: CGAUUAG (DNA:RNA)
RNA: B3 RNA with G25C, U27A, G28U, A29U, U30A
DNA 1: CAATCTGAATTCCGGTCTCCC
DNA 2: TGGTGGCTACGACGGGATT
B5: ACGAUUG (DNA:RNA)
RNA: B1 RNA with A26C, C28A, C29U, C30U, U31G
DNA 1: CAATCTGAATTCCGGTCTCCC
DNA 2: TGGTGGCTACGACGGGATT
B6: AAUGAUC (DNA:RNA)
RNA: B3 RNA with G25A, G26A, G31C
DNA 1: CAATCTGAATTCCGGTCTCCC
DNA 2: TGGTGGCTACGACGGGATT
B7: CCCUCUU (DNA:RNA)
RNA: B1 RNA with A25C, A26C, G27C, C28U, C30U
DNA 1: CAATCTGAATTCCGGTCTCCC
DNA 2: TGGTGGCTACGACGGGATT
B8: GUACAUG (DNA:RNA)
RNA: B3 RNA with G26U, U27A, G28C
DNA 1: CAATCTGAATTCCGGTCTCCC
DNA 2: TGGTGGCTACGACGGGATT
B9: GAUUUAA (DNA:RNA)
RNA: B3 RNA with G26A, G28U, A29U, U30A, G31A
DNA 1: CAATCTGAATTCCGGTCTCCC
DNA 2: TGGTGGCTACGACGGGATT

Residue numbers refer to the chain shown, from its start. This is one part of the list.

The target of this test is T1, RBFOX1 RRM RbFoxmut (Fox-RRM*). Kind of test: EMSA; HiTS-Eq, 1 nM pool, 10 min; buffer printed only for the single-RNA assays: 10 mM Tris pH 7.5, 150 mM NaCl, 3.4 mM EDTA, 0.001% NP-40, 30 C. As to conditions: tags: His6 N-terminal (pET28a); label: 5' 32P. The procedure, abridged: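 Purified RbFox RRM (wild type or mutant) was equilibrated for 10 min in 50 µL with 1 nM of a 5′-radiolabelled pool of RNA with 7 randomized nucleotides, its flanks annealed to DNA oligonucleotides, across increasing protein concentrations. Free RNA was separated by 8% native PAGE, excised, reverse-transcribed, PCR-barcoded and sequenced on an Illumina HiSeq 2500. Relative association constants came from read-count changes of each variant against the control reaction, normalised to the cognate motif.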
For orientation: Mobility shift assays separate free from complexed probe on a gel.
With B1, the binding signal was 0.0868 KA relative to UGCAUGU.

For the molecule B2, the binding signal is 0.086 KA relative to UGCAUGU.

As for B3, the binding signal is 0.412 KA relative to UGCAUGU.

As for B4, the binding signal is 0.0923 KA relative to UGCAUGU.

Take B5: the binding signal was 0.234 KA relative to UGCAUGU.

Regarding B6, the binding signal was 0.0587 KA relative to UGCAUGU.

As to B7, the binding signal was 0.0625 KA relative to UGCAUGU.

Regarding B8, the binding signal is 0.143 KA relative to UGCAUGU.

In the case of B9, the binding signal was 0.0855 KA relative to UGCAUGU.

(Values after paper PMC9911399, “Two distinct binding modes provide the RNA-binding protein RbFox with extraordinary sequence specificity”.)
